# The campaign covered roughly 110,000 compounds. About 230 (0.21%) showed an effect of 50% or more. This is one part of the list.
# Target: DPAP1 (Plasmodium falciparum, UniProt Q8IIJ9)
# Test: primary screen, percent inhibition; read by cleavage of a fluorogenic dipeptide substrate; higher = more effect of the substance
# Parameters: species or system P. falciparum D10 trophozoite lysates; single well
# 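Further: 30 min substrate incubation versus DMSO and 10 µM JCP410 controls.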
# Chain of DPAP1 (Q8IIJ9 whole entry, looked up): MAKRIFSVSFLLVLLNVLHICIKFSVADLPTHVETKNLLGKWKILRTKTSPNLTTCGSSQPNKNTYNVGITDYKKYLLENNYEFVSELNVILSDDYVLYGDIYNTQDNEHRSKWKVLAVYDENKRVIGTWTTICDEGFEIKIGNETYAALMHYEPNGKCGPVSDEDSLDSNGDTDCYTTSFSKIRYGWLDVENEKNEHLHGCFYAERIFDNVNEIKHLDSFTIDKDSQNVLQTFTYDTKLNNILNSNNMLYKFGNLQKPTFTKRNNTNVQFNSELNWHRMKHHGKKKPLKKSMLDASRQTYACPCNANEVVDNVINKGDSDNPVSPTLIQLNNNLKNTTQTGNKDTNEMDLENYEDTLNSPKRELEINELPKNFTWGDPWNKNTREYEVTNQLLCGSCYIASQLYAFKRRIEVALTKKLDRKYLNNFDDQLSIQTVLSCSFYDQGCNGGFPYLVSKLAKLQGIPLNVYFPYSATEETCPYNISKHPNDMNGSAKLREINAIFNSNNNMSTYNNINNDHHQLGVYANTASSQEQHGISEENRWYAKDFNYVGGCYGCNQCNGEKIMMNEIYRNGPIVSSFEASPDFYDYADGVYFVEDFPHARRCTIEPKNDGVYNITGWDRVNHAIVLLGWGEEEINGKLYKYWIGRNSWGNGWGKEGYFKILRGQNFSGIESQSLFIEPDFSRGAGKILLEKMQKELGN
row,Structure (SMILES),% Inhibition @ 10 uM [%]
1,CC(C)OCCCNc1nc2c(S(=O)(=O)c3ccccc3)nnn2c2ccccc12,0.291
2,CC(C)CNC(=O)C(C)c1ccc(CC(C)C)cc1 (centres unmarked),-0.597
3,c1ccc(SCCc2ccncc2)cc1,3.7
4,CN(CCNC(=O)c1cc2c(s1)CS(=O)(=O)C2)C1CCCCC1,0.0695
5,COc1ncc(Cc2ccc(C)cc2)cc1O,5.53
6,CC(C(=O)NC1CCCc2ccccc21)n1ncn2cccc2c1=O (centres unmarked),4.26
7,O=C(CSc1nc(-c2ccccc2)c(-c2ccccc2)[nH]1)N1CCOCC1,-4.43
8,COc1ccc(OC)c(-n2c(CN3CCN(c4ccccc4)CC3)nc3ccccc3c2=O)c1,-1.51
9,Cc1ccc(S(=O)(=O)NCCc2cc3ccc(C)c(C)c3nc2O)cc1,-4.16
10,CC(NCCC(=O)O)c1ccccc1 (centres unmarked),-4.35
11,CN1CN=C2SC3(COC(c4cccc(Br)c4)OC3)C(=O)N2C1 (centres unmarked),-0.357
12,COc1cccc(C2C(C(C)=O)=C(O)C(=O)N2CCC(=O)O)c1 (centres unmarked),1.52
13,CC(C)c1ccc(NC(=O)Cc2cccc3ccccc23)cc1,-4.58
14,C=CCN1C(=O)S/C(=C/c2ccc(-c3ccccc3)o2)C1=O,11
15,N#CCNC(=O)[C@H](CS(=O)(=O)Cc1ccccc1)NC(=O)c1ccoc1,3.1
16,CCCOc1ccccc1C(=O)N(Cc1cccc(F)c1)C1CCS(=O)(=O)C1 (centres unmarked),-1.35
17,O=c1c2ccccc2n2c(-c3ccc(F)cc3)nnc2n1CCc1ccccc1,-5.6
18,CCCOC(=O)c1ccc(-n2nnnc2SCC(=O)N2CCOCC2)cc1,7.1
19,Oc1nnc2ccc(N3CCOCC3)nn12,-0.261
20,COc1cc(/C=C2/SC(N3CCOCC3)=NC2=O)ccc1O,0.673
21,Cc1ccc(OCC(=O)Nc2cc(Cl)ccc2C)cc1,-2.19
22,COCc1cc(O)n2nc(Cc3ccccc3)c(-c3ccccc3)c2n1,-2.2
23,CC(CN1CCC(O)(c2ccc(Br)cc2)CC1)c1ccccc1 (centres unmarked),-3.27
24,Clc1ccc(CSc2nccn2Cc2ccccc2)cc1,-7.55
25,Cc1ccc(-c2c(CN3CCN(C)CC3)csc2C)cc1,0.124
26,COCCNC(=O)c1cc(-c2ccc(OC)cc2)nc2ccccc12,-3.94

row,Structure (SMILES),% Inhibition @ 10 uM [%]
1,COc1ccc(Cc2nc3c4cnn(-c5ccccc5)c4ncn3n2)cc1,-3.96
2,CC(=O)N1CCN(CC/N=C/C2=C(O)CC(c3ccc(Cl)cc3)CC2=O)CC1 (centres unmarked),-1.08
3,Cc1c(C)n(C(=O)CN2CCN(c3ccccn3)CC2)c2ccccc12,-1.72
4,COc1ccc(CCCN=C(N)N)cc1Cl,-0.0369
5,CC1=C(C(=O)Nc2ccc(F)cc2)C(c2cccc(Cl)c2Cl)n2nc(CCCO)nc2N1 (centres unmarked),-9.02
6,Cc1cc2oc(C(=O)NCc3ccc(S(N)(=O)=O)cc3)c(C)c2cc1C,3.72
7,CCOc1ccc(S(=O)(=O)/N=C2\C=CC(=O)C(Cl)=C2)cc1,13.3
8,C=CCOC(=O)C1=C(C)OC(N)=C(C#N)C12C(=O)Nc1ccccc12 (centres unmarked),-7.19
9,CCC1CCC(N2CCN(C=O)CC2)CC1 (centres unmarked),-1.41
10,CCN(CC)CC(=O)c1csc2ccccc12,4.22
11,CCc1nnc(NS(=O)(=O)c2ccc(NC(=O)c3ccco3)cc2)s1,-5.56
12,O=C(NCCN1CCC(Cc2ccccc2)CC1)C(Cc1ccccc1)N1Cc2ccccc2C1=O (centres unmarked),0.822
13,CC1(C)COC(c2cc(C(C)(C)C)cs2)=N1,4.03
14,C=CCNC(=O)Nc1ccc(Cl)cc1,4.8
15,CC(=O)c1ccc(N2CCN(C(=O)N[C@@H](CC(C)C)C(=O)NCC#N)CC2)cc1,-5.2
16,CC(c1ccccc1)n1cnc2c(oc3ccccc32)c1=O (centres unmarked),-4.18
17,CCN(CC)C(=O)C1CCCN(Cc2ccncc2)C1 (centres unmarked),0.472
18,Cc1nc(N2CCC(C)CC2)c2c(C)c(C(=O)N(C)Cc3ccccc3)sc2n1,-5.76
19,COCCCNC(=O)c1oc2ccc3c(c2c1C)C=CC(C)(C)O3,-2.88
20,Cc1ccc(S(=O)(=O)N2CCC(C(=O)NCC3CCCO3)CC2)cc1 (centres unmarked),-0.169
21,CC(=O)c1ccc(NC(=O)C(CC(C)C)N2C(=O)c3ccccc3C2=O)cc1 (centres unmarked),3.53
22,CCN(CC)CCNC1=NCCn2c1cc1cc(OC)ccc12,-2.99
23,O=c1oc2cc(O)ccc2cc1-c1nc2ccccc2s1,5.37
24,COc1ccc(S(=O)(=O)N2CCC(c3nc4ccccc4s3)CC2)cc1,-3.06
25,CN(CCCNC(=O)Cn1nc(-c2ccccc2)ccc1=O)Cc1ccccc1,0.302
26,COc1ccc(-c2c(C(C)=O)c(C)nc3sc4c(-n5nc(C)cc5C)ncnc4c23)cc1,2.95

row,Structure (SMILES),% Inhibition @ 10 uM [%]
1,N#C/C(=C/c1ccc(-c2cc(Cl)ccc2Cl)o1)C(=O)O,-7.01
2,CC1=CC(C)(C)N(C(=O)CSc2nc3ccccc3s2)c2ccccc21,1.24
3,CC(C)N(Cc1nc(-c2ccc(Cl)cc2)no1)C(=O)CCC1CCCC1,-1.24
4,Cc1ccsc1C1C(C#N)=C(N)OC2=C1C(=O)CC(c1ccccc1)C2 (centres unmarked),1.96
5,CCC(Cc1ccccc1)NC(=O)/C=C/c1ccccc1 (centres unmarked),1.54
6,CCCCN(C)C(=O)C1CCN(c2nnc(C)c3c(C)n(-c4ccccc4)nc23)CC1,-1.23
7,CCOc1ccc(/C=C/C(=O)c2c(O)cc(C)oc2=O)cc1,-0.546
8,CCC1CCCCN1C(=O)Cn1c(SCc2ccc(C)cc2)nc2cccnc21 (centres unmarked),0.95
9,NC(=O)c1cc2nc(-c3ccco3)cc(C(F)(F)F)n2n1,-9.52
10,COc1ccc(NC(=O)c2ccc(C(=O)c3c(C)cc(C)cc3C)cc2)cc1,-7.87
11,O=C(c1ccccc1)c1ccc2nc(Cl)c3nncn3c2c1,-1.59
12,COc1ccc(C(CC(=O)Nc2cc(C)on2)NC(=O)C(F)(F)F)cc1 (centres unmarked),-5.36
13,Cc1cccc(C(=O)Nc2nnc(SCc3cc(=O)n4ccsc4n3)s2)c1,4.11
14,CCC(=O)Nc1nc(-c2ccccc2)nc(SC)c1C(C)=O,-3.64
15,COc1cc(CN2C(=O)c3c(C)nc4ccccc4c3C2=O)cc(OC)c1,0.505
16,O=C(c1cc(S(=O)(=O)N2CCCC2)c[nH]1)N1CCC(Cc2ccccc2)CC1,8.41
17,O=C(NCCN1CCCCCC1)C1CCC(CNS(=O)(=O)c2cccc3cccnc23)CC1 (centres unmarked),-6.07
18,COCCNC(=O)c1cn(C2CCCC2)c(=O)c2c1c1ccccc1n2C,-1.58
19,COc1ccc(C)cc1N(CC(=O)N1CCc2ccccc2C1)S(=O)(=O)c1ccc(C)cc1,7.64
20,COC(=O)C1=CNC=C(C(=O)OC)C1c1ccc(Cl)c(Cl)c1,4.66
21,COc1ccc(-c2cc(C)no2)cc1S(=O)(=O)NCCN(Cc1ccco1)C1CCCC1,3.9
22,Cc1ccc(NC(=O)Nc2ccccc2)cc1Cl,1.08
23,N#Cc1c(NC(=O)c2ccc(Cl)cc2Cl)sc2c1CCCC2,22.5
24,Cc1c(C(=O)O)cc(-c2ccccc2)n1C,1.94
25,Fc1cccc(CCNCc2c[nH]c3ccccc23)c1,-1.5
26,O=S(=O)(Cc1ccccc1)N1CCC(c2nc3ccccc3s2)CC1,0.401

row,Structure (SMILES),% Inhibition @ 10 uM [%]
1,CC(NC(=O)c1ccccc1NS(=O)(=O)c1ccc(F)cc1)c1ccccc1 (centres unmarked),-0.473
2,O=C(c1[nH]nc2c1CCCC2)n1ccnc1,0.738
3,OCCN1CCN(Cc2cc(Br)cs2)CC1,-6.27
4,COc1ccc(C(=O)Nc2ccc(Cc3ccncc3)cc2)cc1OC,1.94
5,COc1ccc(-c2ccc3c(N)c(C(=O)Nc4cccc(F)c4)sc3n2)cc1,-6.39
6,CCOc1ccc(C(=O)Nc2cc(C)on2)cc1,4.3
7,CC1CCc2c(sc(NC(=O)CCC(=O)O)c2C(N)=O)C1 (centres unmarked),-2.09
8,Cc1ccc(Cn2c(=O)[nH]c3ncccc3c2=O)cc1,-3.44
9,O=C1NC(=O)N(c2ccccc2)C(=O)/C1=C\Nc1ccc(C(=O)N2CCOCC2)cc1,-4.76
10,COc1cc(C(=O)NC(C)c2nc3ccccc3[nH]2)cc(OC)c1OC (centres unmarked),-2.74
11,COc1ccc(S(=O)(=O)Nc2ccc(NC(C)=O)cc2)cc1C,-1.55
12,CC(=O)Nc1ccc(NC(=O)CNS(=O)(=O)c2ccc(F)cc2)cc1,1.15
13,O=C(NCc1ccco1)c1cc2cc(Cl)cc(Cl)c2oc1=O,4.32
14,O=C1c2oc3ccc(F)cc3c(=O)c2C(c2ccc(O)cc2)N1CCCN1CCOCC1 (centres unmarked),-6.71
15,O=c1oc(-c2ccccc2F)nc2c1cnn2-c1ccccc1,3.44
16,O=C(Cn1nc(-c2ccccc2)nc1-c1ccccc1)Nc1ccc(Br)cc1,-2.18
17,CN1CCN(Cc2nc3c(c(=O)[nH]c(=O)n3C)n2Cc2c(F)cccc2Cl)CC1,5.09
18,CC(CNC(=O)CCc1nc2cccnc2n1Cc1cccs1)c1ccccc1 (centres unmarked),1.62
19,CC1CCCC(NC(=O)Cn2nc(Cc3ccncc3)c3ccccc3c2=O)C1C (centres unmarked),-6.52
20,COc1ccc(Oc2c(C(F)(F)F)oc3cc(OCC(=O)NC4CCCCC4)ccc3c2=O)cc1,-7.45
21,CCOC(=O)C1=C(CS(=O)(=O)c2ccc(F)c(C)c2)NC(=O)NC1c1ccc(O)c(O)c1 (centres unmarked),-0.644
22,Cc1ccc(C(=O)N2CCC(c3nc(-c4ccc(S(=O)(=O)N5CCCC5)cc4)no3)CC2)cc1,-1.31
23,Cc1c(-c2nsc(NC(=O)c3cccc(F)c3)n2)nnn1-c1ccccc1C(F)(F)F,-1.2
